# Source: the supplement of paper PMC12217912
# The list shows a part of the results. The full chains were built here from the parent and the listed change. Values near 0.05 are background.
# B1: TEV protease; numbered along this chain (parent)
# chain: MGESLFKGPRDYNPISSSICHLTNESDGHTTSLYGIGFGPFIITNKHLFRRNNGTLVVQSLHGVFKVKDTTTLQQHLVDGRDMIIIRMPKDFPPFPQKLKFREPQREERICLVTTNFQTKSMSSMVSDTSCTFPSGDGIFWKHWIQTKDGQCGSPLVSTRDGFIVGIHSASNFTNTNNYFTSVPKNFMELLTNQEAQQWVSGWRLNADSVLWGGHKVFMVKPEEPFQPVKEATQL
# Variants of: B1
# Experiment: raw area under fraction-flipped curve 0-4 h after induction (AUC4h, not background-subtracted), DNA-recorder readout of cleavage of the substrate (dimensionless); higher = more cleavage of the substrate by the protease variant
# Details: temperature: 34 °C; time window: 0-4 h after rhamnose induction
# 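Also: Bxb1 expression induced with 0.2% (w/v) L-rhamnose at OD600 near 0.5, cultures sampled hourly, flipped fraction per protease–substrate barcode pair counted by paired-end Illumina sequencing.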
Variant,area with substrate ENLCFQS,area with substrate ENLDFQS,area with substrate ENLEFQS,area with substrate ENLNFQS,area with substrate ENLPFQS,area with substrate ENLRFQS,area with substrate ENLSFQS,area with substrate ENLWFQS,area with substrate ENLFFQS,area with substrate ENLGFQS,area with substrate ENLHFQS,area with substrate ENLIFQS,area with substrate ENLKFQS,area with substrate ENLLFQS,area with substrate ENLMFQS,area with substrate ENLQFQS,area with substrate ENLVFQS,area with substrate ENLTFQS
L73K,0.0638,0.0549,0.0523,0.0544,0.0571,0.037,0.0482,0.055,–,–,–,–,–,–,–,–,–,–
L73D,0.0521,0.0499,0.0572,0.053,0.0567,0.0636,0.0504,–,0.0547,0.0773,0.0437,0.0781,0.0587,0.0587,0.0482,–,–,–
V67I,0.0983,–,–,0.0629,–,0.062,–,–,–,–,0.096,0.0982,0.0761,–,–,–,–,–
V78L,0.0967,–,0.059,–,0.0694,0.0852,0.0444,–,0.123,–,0.0706,–,0.112,0.0518,–,–,–,–
G63S,0.0699,0.0618,0.0582,0.0672,–,0.0813,0.0579,0.0696,0.0889,0.0683,0.0648,0.0715,0.0701,–,–,–,–,–
F65H,0.0711,0.058,–,0.049,–,0.075,0.0704,0.0387,0.0776,–,–,–,0.0884,–,–,–,–,–
T71N,0.0599,0.0691,0.0575,0.0758,0.047,0.0657,0.0755,0.0585,0.115,–,–,–,0.0881,–,–,0.0672,0.0875,–
L61R,0.0752,0.053,0.0737,0.0697,0.11,0.07,0.0601,–,0.105,0.0742,0.0751,0.0821,0.0952,0.0864,–,0.0927,0.0474,–
D82P,0.0732,0.0656,0.0689,0.0655,–,0.0598,0.0561,–,–,–,0.0526,–,0.0558,0.0559,–,–,–,–
Q75I,0.0661,0.0584,0.0532,–,0.0687,–,0.0693,–,0.0729,–,0.0702,–,0.0567,0.0604,–,–,–,–
T70P,0.0831,0.074,0.084,0.0554,0.0697,–,0.0577,0.0427,0.0707,–,–,0.0491,0.067,0.0524,0.0621,0.0641,0.0623,–
C111P,0.0415,0.058,0.0709,0.0533,–,–,–,–,–,–,0.0812,–,0.0605,0.042,0.0655,–,–,–
C111G,0.0702,0.0633,–,–,0.0587,–,–,–,0.0925,0.0483,–,0.0843,–,–,–,–,–,–
K68G,0.081,–,–,–,0.0477,0.0713,–,–,0.0702,–,0.0753,0.0886,–,0.058,0.0479,–,0.0964,–
K68D,0.108,0.0637,0.0704,0.0602,0.054,–,0.0459,–,0.0998,–,0.0823,0.0908,0.0638,0.0974,–,0.104,–,–
K68P,0.0736,0.0536,0.0585,0.0688,–,–,0.0561,0.0696,0.0875,–,0.0716,0.0474,0.0739,0.0786,0.053,0.0467,–,–

Variant,area with substrate ENLCFQS,area with substrate ENLDFQS,area with substrate ENLEFQS,area with substrate ENLNFQS,area with substrate ENLPFQS,area with substrate ENLRFQS,area with substrate ENLSFQS,area with substrate ENLWFQS,area with substrate ENLFFQS,area with substrate ENLGFQS,area with substrate ENLHFQS,area with substrate ENLIFQS,area with substrate ENLKFQS,area with substrate ENLLFQS,area with substrate ENLMFQS,area with substrate ENLQFQS,area with substrate ENLVFQS,area with substrate ENLTFQS
R102P,0.0436,0.0319,0.0475,0.0436,0.0416,0.0611,0.0496,0.0432,0.0463,–,0.0687,–,–,0.0379,–,0.0465,0.0496,–
V113I,0.0681,–,0.0354,0.0809,–,–,0.0678,0.0629,0.0719,–,0.046,–,0.083,–,–,0.0704,–,–
T115L,0.0802,–,0.0645,–,0.0554,0.0784,0.0534,0.0654,0.0915,–,0.0769,–,0.0799,–,–,–,0.0869,–
I84T,0.0588,0.0796,0.0488,0.0477,–,0.0905,0.0478,–,–,–,0.0338,–,0.0771,–,–,–,–,0.0641
N53Y,0.0931,0.0589,–,0.0609,0.0407,0.0604,0.0525,0.0555,0.0706,–,0.0557,0.0615,0.067,0.059,–,–,0.0735,–
S127Q,0.0798,0.087,0.0074,0.0467,–,–,0.0641,–,0.129,0.0721,0.0823,–,0.0751,–,–,0.0676,–,–
Q59P,0.0448,0.0332,–,0.042,–,0.0427,0.109,–,0.0409,0.0398,0.0468,–,0.0387,–,–,–,0.0511,–
L77Q,0.064,0.0657,–,0.0624,0.0556,–,0.0601,0.0588,0.0614,–,0.045,0.0668,0.0621,0.0241,–,–,–,–
F140N,0.0541,0.0613,0.0658,0.0674,0.0658,0.0771,0.0506,0.0643,0.0644,0.0395,0.0616,0.0525,0.07,0.0664,–,0.0654,–,–
F92D,0.0599,0.047,0.0598,0.0496,0.0505,0.0534,0.0599,0.0507,0.0491,–,0.0545,–,0.0531,–,0.062,0.0517,0.0647,–
N52E,0.063,0.0521,0.0644,0.0591,0.0662,0.0544,0.0619,0.0668,0.0632,0.0607,0.0505,–,0.0845,–,–,–,0.0828,–
M125G,0.0791,0.0654,–,0.0636,–,0.0717,–,0.0492,0.084,0.0611,0.0887,–,–,0.0635,0.088,–,–,–
M125Q,0.0828,0.0597,0.0662,0.0576,0.0527,0.0495,0.0552,–,0.0929,0.0602,0.0587,0.0924,0.0799,0.0765,0.0692,0.0743,–,–
R87C,0.072,0.0622,0.0592,–,–,–,0.0746,–,0.0863,–,0.049,–,0.0632,0.0338,–,–,–,–
R87I,0.0495,0.0597,–,0.052,0.055,0.0754,0.0718,–,0.0706,0.0568,0.06,–,–,0.0625,0.0544,0.0579,0.0551,0.0638
